In the RNAGym collection of RNA variant scans (doi:10.7554/elife.90254):
Read counts are not given, so values of variants with three or more changes are uncertain.

B1: LINE1-mini (parent)
chain: GGCAGAGCUCAACACAGCGUGGCAAAGUGGCUGUGGCUAGACUGCC

Variants of: B1
Assay: self-cleavage, relative activity (ratio to wild type); higher = more cleavage; in vitro, sequencing; the parent is a self-cleaving ribozyme

Q: With GGCGGAGCUAAAUACAGCGUGGCAAAGUGGAUGUGGCUAGACUGCC [A4G C10A C13U C31A] as the variant, how does the self-cleavage read?
A: 0.02

Q: Which self-cleavage does the source give for GGCGGAGCUAAACACAGCGUGGGAAUGGGGCUGUGGCUAGACUGCC [A4G C10A C23G A26U U28G] here?
A: 0.64

Q: With GGCGGAGCUAAACACAGCGUGGCAAAGUGGCUGUGGCUAGACUGAC [A4G C10A C45A] as the variant, how does the self-cleavage read?
A: 0.03

Q: With GGCGGAGCUAAACACACCCUGGCAAAGUGGGUGUGGAUUAACUGCC [A4G C10A G17C G19C C31G C37A A39U G40A] as the variant, how does the self-cleavage read?
A: 0

Q: For GGCGGAGCUAAACACAGCUUGGCAAAGUGGCUGUGGCUAGACUGCC [A4G C10A G19U], which self-cleavage is on record?
A: 0.01

Q: Which self-cleavage does the source give for GGCGGAGCUAAACACAGCGUGUCAAAGUGGCUGUGGCUAGACUGUC [A4G C10A G22U C45U] here?
A: 0.01

Q: For GGCGGAGCUAAACACAGCGUGGCAAAGUUGCUGUGGCUAGACUGCC [A4G C10A G29U], which self-cleavage is on record?
A: 0.04

Q: With GGCGGAGCUAAACACAGCGAUGCAAAGUGGCUGUGGCUAGACUGCC [A4G C10A U20A G21U] as the variant, how does the self-cleavage read?
A: 0.01

Q: With GGCGGAGCUAAACACAGCGUGGCAAAGUGGCUGGGGCUAGACUGCA [A4G C10A U34G C46A] as the variant, how does the self-cleavage read?
A: 0.01

Q: Which self-cleavage does the source give for GGCGGAGCUAAACACAGCGUGGCAAAGUGGCUGGGGCUAGACUUCC [A4G C10A U34G G44U] here?
A: 0.01

Q: For GGCGGAGCUAAACACAGCGUGGCAAAGUGGCUGUGGCUAGACAGCC [A4G C10A U43A], which self-cleavage is on record?
A: 0.02

Q: Which self-cleavage does the source give for GGCGGAGCUGAACACAGCGUGGCAACGUGGCUGUGGCUAGACUGCC [A4G C10G A26C] here?
A: 0.05

Q: Which self-cleavage does the source give for GGCGGAGCUGAACACAGCGUGCCAAAUUGAAUGUGGCUAGACGGCC [A4G C10G G22C G27U G30A C31A U43G] here?
A: 0

Q: With GGCGGAGCUUAACACAGCGUGGCAAUGUGUCUGUGGCUAGACUGCC [A4G C10U A26U G30U] as the variant, how does the self-cleavage read?
A: 0.16

Q: With GGCGGAGCUUAACACAGCGUGGCAAAGUGGCUGUGGCUAGUCUGCC [A4G C10U A41U] as the variant, how does the self-cleavage read?
A: 0.05

Q: For GGCGGAGCUUAACACAGAGGGGCAAAGUGGUUGUGGCUAGACAGCC [A4G C10U C18A U20G C31U U43A], which self-cleavage is on record?
A: 0.03

Q: With GGCGGAGCUUAACACAGCGUUGCAAAGUUGCUGUGGCGAGUCUGCC [A4G C10U G21U G29U U38G A41U] as the variant, how does the self-cleavage read?
A: 0.02

Q: With GGCGGAGCUUAACACAGCGGGGCAGAGUGGCUGUGGCUAGACUGAC [A4G C10U U20G A25G C45A] as the variant, how does the self-cleavage read?
A: 0.04

Q: Which self-cleavage does the source give for GGCGGAGCUUAACACAGCGUGGCAAAGUGGCUGUGGCAAGACUGCC [A4G C10U U38A] here?
A: 0.01

Q: With GGCGGAGCUCAAAACCGCGUGGAAGAGUGACUGUGGCUAGACUGCC [A4G C13A A16C C23A A25G G30A] as the variant, how does the self-cleavage read?
A: 0.04

Q: For GGCGGAGCUCAAAACAGCGUGGCUAAGUGGCUGUGGCUAGACUGCC [A4G C13A A24U], which self-cleavage is on record?
A: 0.32

Q: Which self-cleavage does the source give for GGCGGAGCUCAAAACAGCGUGGCAAAGUGGCUGUGGCUAGGCUGCC [A4G C13A A41G] here?
A: 0.16

Q: For GGCGGAGCUCAAAACAGGGUGGCACAGUGGCUGUGGCCAGACUGCC [A4G C13A C18G A25C U38C], which self-cleavage is on record?
A: 0.04

Q: For GGCGGAGCUCAAAACACCGUGGCAAAGUGGCUGUCGCUAGACUGCC [A4G C13A G17C G35C], which self-cleavage is on record?
A: 0.15

Q: With GGCGGAGCUCAAAACAGCGUGGCAAAGUAGCUGUGCCUAGGCUGAC [A4G C13A G29A G36C A41G C45A] as the variant, how does the self-cleavage read?
A: 0.19

Q: Which self-cleavage does the source give for GGCGGAGCUCAAAACAGCGUGGCAAAGCGGCUGUGGCUAGACUGCC [A4G C13A U28C] here?
A: 0.05

Q: Which self-cleavage does the source give for GGCGGAGCUCAAUACCGCGUGGCAAAGUGGCUGUGGCUAGACUGUC [A4G C13U A16C C45U] here?
A: 0.62

Q: For GGCGGAGCUCAAUAGAGCGUGGCAAAGUGGCUGUGGUUAGACUGCC [A4G C13U C15G C37U], which self-cleavage is on record?
A: 0.88

Q: With GGCGGAGCUCAAUACAGCCUGGCAAAGUGGCUGUGGCUUGACUGCC [A4G C13U G19C A39U] as the variant, how does the self-cleavage read?
A: 0.05

Q: Which self-cleavage does the source give for GGCGGAGCUCAAUACAGCGUGGCAAAGUGUCUGUGGCUAGACUGCC [A4G C13U G30U] here?
A: 0.32

Q: For GGCGGAGCUCAAUACAGCGUGGCAAAGUGUUUGUGGCUAGACUGCC [A4G C13U G30U C31U], which self-cleavage is on record?
A: 0.07

Q: With GGCGGAGCUCAAUACAGCGUGGCAAAGAGGCUGUGGCUAGACUGCC [A4G C13U U28A] as the variant, how does the self-cleavage read?
A: 0.06

Q: With GGCGGAGCUCAAUACAGCGUGGCAAAGAGGCUAUGGCUAGACUGCC [A4G C13U U28A G33A] as the variant, how does the self-cleavage read?
A: 0.37

Q: Which self-cleavage does the source give for GGCGGAGCUCAAUACAGCGUGGCAAAGUGGCUGGGGCAAGACUGCC [A4G C13U U34G U38A] here?
A: 0.18

Q: For GGCGGAGCUCAACAAAGCGUGGCAAAGUGGAUGUGGAUCGACUGCC [A4G C15A C31A C37A A39C], which self-cleavage is on record?
A: 0.23

Q: For GGCGGAGCUCAACAAAGCAUGGCACAGUGGCUGUGGGUAGACUGCC [A4G C15A G19A A25C C37G], which self-cleavage is on record?
A: 0.02

Q: For GGCGGAGCUCAACAAAGCGUGGCAAACUGGCUGUGGCUACAUAGCC [A4G C15A G27C G40C C42U U43A], which self-cleavage is on record?
A: 0.03

Q: Which self-cleavage does the source give for GGCGGAGCUCAACAAAGCGUGGCAAAUCGGCUGUGGCUAGACUGCC [A4G C15A G27U U28C] here?
A: 0.39

Q: Which self-cleavage does the source give for GGCGGAGCUCAACAAAGCGUGGCAAAGUGCUUGUGGCUAGACUGCC [A4G C15A G30C C31U] here?
A: 0.1

Q: Which self-cleavage does the source give for GGCGGAGCUCAACAAAGCGCGGCACAGUGGCUCUGGCUAGACUGCC [A4G C15A U20C A25C G33C] here?
A: 0

Q: With GGCGGAGCUCAACAAAGCGUGGCAAAGUGGCGGUGGCUAGACUGCC [A4G C15A U32G] as the variant, how does the self-cleavage read?
A: 0

Q: For GGCGGAGCUCAACAAAGCGUGGCAAAGUGGCUGUGGCUAGACAGCC [A4G C15A U43A], which self-cleavage is on record?
A: 0.01

Q: With GGCGGAGCUCAACAGUGUGUAGCAAAGUGGAUCUGGGUAGACUGCC [A4G C15G A16U C18U G21A C31A G33C C37G] as the variant, how does the self-cleavage read?
A: 0.03

Q: For GGCGGAGCUCAACAGAGCGUGGCUAGGUGGCUGUGGCUAGACUGCC [A4G C15G A24U A26G], which self-cleavage is on record?
A: 0.04

Q: For GGCGGAGCUCAACAGAGCGUGGCAAAGUGGCUGUGGCUAGUAUGCC [A4G C15G A41U C42A], which self-cleavage is on record?
A: 0.03

Q: With GGCGGAGCUCAACAGAGCGUGGCAAAGUGGCUGUGGCUAGAAUGCC [A4G C15G C42A] as the variant, how does the self-cleavage read?
A: 0.02

Q: Which self-cleavage does the source give for GGCGGAGCUCAACAGAGCGUGGCAAAUUGGCUGUGGCUAGAUUGCC [A4G C15G G27U C42U] here?
A: 0.02

Q: For GGCGGAGCUCAACAGAGCGUGGCAAAGUUGCUGUGGCUAGACUGCC [A4G C15G G29U], which self-cleavage is on record?
A: 0.05

Q: With GGCGGAGCUCAACAGAGCGUGGCAAAGUGGCUAUGGCUAGAGUGCC [A4G C15G G33A C42G] as the variant, how does the self-cleavage read?
A: 0.01

Q: With GGCGGAGCUCAACAGAGCGUGGCAAAGUGGCGGCGGCUGGACUGCC [A4G C15G U32G U34C A39G] as the variant, how does the self-cleavage read?
A: 0.05

Q: For GGCGGAGCUCAACAUGGCGUGGCAAAGUGGCUGUGGCUAGACUGCC [A4G C15U A16G], which self-cleavage is on record?
A: 0.33

Q: With GGCGGAGCUCAACAUAGCGUGGCAAUGUGGCUGUGACUAGACUGCG [A4G C15U A26U G36A C46G] as the variant, how does the self-cleavage read?
A: 0.24

Q: With GGCGGAGCUCAACAUAGGGUGGCAAAGUGGCUGUGGCUAGACUGCC [A4G C15U C18G] as the variant, how does the self-cleavage read?
A: 0.07

Q: With GGCGGAGCUCAACAUAGCCUUGCACAUUUGCUGUGGCUAGUCAGCC [A4G C15U G19C G21U A25C G27U G29U A41U U43A] as the variant, how does the self-cleavage read?
A: 0.11

Q: Which self-cleavage does the source give for GGCGGAGCUCAACAUAGCGUGGCAAAGUGGCUGUGACUAGACUGCC [A4G C15U G36A] here?
A: 0.11

Q: With GGCGGAGCUCAACAUAGCGUGGCAAAGUGGCUGUGGCUAGACUCGC [A4G C15U G44C C45G] as the variant, how does the self-cleavage read?
A: 0.04
